# According to US20250248397A1, “CHITOSAN ENCAPSULATION OF ABSOLUTE (ESSENTIAL) ROSEMARY, PEPPERMINT, AND COTTONSEED OILS” (GroPro Corporation, priority 2024, published 2025):
# Tested on: multiple insects
# Experiment: Insecticidal activity of oxymatrine
# Type: in vivo
# Conditions: used at 500 to 6,000 ppm
structure (smiles),measurement,value
"O=C1CCC[C@@H]2[C@H]3CCC[N+]4([O-])CCC[C@@H](CN12)[C@@H]34 (stereo partly shown) [Oxymatrine, oxymatrine]",insecticidal control and plant phytotoxicity,superior insecticidal control was demonstrated without plant phytotoxicity
